Measurements published in publication PMC12820563, “FoxP3 forms a head-to-head dimer in vivo and stabilizes its multimerization on adjacent microsatellites”.
The other results are listed elsewhere or left out.

target: T1, MBP-FoxP1dN (Mus musculus, UniProt P58462 326-579); test: PD-seq (MBP pull-down with sequencing); 20 mM Tris-HCl pH 7.5, 100 mM NaCl, 1.5 mM MgCl2, 0.4 uM protein, 0.1 uM dsDNA library, 30 min, room temperature, amylose pull-down; high values mean tight binding; conditions: protein: recombinant; tags: His6-MBP; chain copies: 2; dsDNA, one strand shown
T1 sequence: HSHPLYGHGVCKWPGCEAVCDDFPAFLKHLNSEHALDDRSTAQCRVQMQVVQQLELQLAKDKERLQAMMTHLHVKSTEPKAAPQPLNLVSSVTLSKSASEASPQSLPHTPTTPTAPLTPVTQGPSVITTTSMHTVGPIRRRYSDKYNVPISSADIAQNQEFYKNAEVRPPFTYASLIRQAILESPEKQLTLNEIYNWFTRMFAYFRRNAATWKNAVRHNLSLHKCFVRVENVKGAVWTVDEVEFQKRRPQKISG
In short: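 Amylose resin was used to capture complexes formed during 30 min at room temperature in Tris pH 7.5 buffer with NaCl and MgCl2 between 0.4 µM His6-MBP-tagged mouse FoxP3 or FoxP1 fragment lacking the N-terminus, expressed in E. coli, and 0.1 µM Klenow-filled double-stranded degenerate DNA library. After three washes, the DNA was released with proteinase K, barcoded by PCR and sequenced on Illumina. Binding is pooled-replicate reads-per-million enrichment, pull-down over input.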

Sequence | binding signal
GATGATTGTTCTCCCAGCTGATGAATTGATATGTTCGAGTAAACAAATTTTCCTAATCTTTCTGTTCAAGCGCCATCTAC | 1.27 RPM ratio (pull-down/input)
GATGATTGTTCTCCCAGCTGATGAATTTGATATCTCGAGTAAACAAATTTTCCTAATCTTTCTGTTCAAGCGCCATCTAC | 0.967 RPM ratio (pull-down/input)
GATGATTGTTCTCCCAGCTGATGAATTGGCTTCTTCGAGTAAACAAATTTTCCTAATCTTTCTGTTCAAGCGCCATCTAC | 0.926 RPM ratio (pull-down/input)
GATGATTGTTCTCCCAGCTGATGAATTACGCCTCTCGAGTAAACAAATTTTCCTAATCTTTCTGTTCAAGCGCCATCTAC | 1.01 RPM ratio (pull-down/input)
GATGATTGTTCTCCCAGCTGATGAATTCGAGGCCTCGAGTAAACAAATTTTCCTAATCTTTCTGTTCAAGCGCCATCTAC | 0.796 RPM ratio (pull-down/input)
GATGATTGTTCTCCCAGCTGATGAATTAGAGAGATCGAGTAAACAAATTTTCCTAATCTTTCTGTTCAAGCGCCATCTAC | 0.86 RPM ratio (pull-down/input)
GATGATTGTTCTCCCAGCTGATGAATTACTAGCTTCGAGTAAACAAATTTTCCTAATCTTTCTGTTCAAGCGCCATCTAC | 1.06 RPM ratio (pull-down/input)
GATGATTGTTCTCCCAGCTGATGAATTGTGTAAGTCGAGTAAACAAATTTTCCTAATCTTTCTGTTCAAGCGCCATCTAC | 1.11 RPM ratio (pull-down/input)
GATGATTGTTCTCCCAGCTGATGAATTACTTGGTTCGAGTAAACAAATTTTCCTAATCTTTCTGTTCAAGCGCCATCTAC | 0.959 RPM ratio (pull-down/input)
GATGATTGTTCTCCCAGCTGATGAATTTGATGTATCGAGTAAACAAATTTTCCTAATCTTTCTGTTCAAGCGCCATCTAC | 1.25 RPM ratio (pull-down/input)
GATGATTGTTCTCCCAGCTGATGAATTGGGGATATCGAGTAAACAAATTTTCCTAATCTTTCTGTTCAAGCGCCATCTAC | 0.891 RPM ratio (pull-down/input)
GATGATTGTTCTCCCAGCTGATGAATTTGGTTTCTCGAGTAAACAAATTTTCCTAATCTTTCTGTTCAAGCGCCATCTAC | 0.962 RPM ratio (pull-down/input)
GATGATTGTTCTCCCAGCTGATGAATTAGATAGGTCGAGTAAACAAATTTTCCTAATCTTTCTGTTCAAGCGCCATCTAC | 0.863 RPM ratio (pull-down/input)
GATGATTGTTCTCCCAGCTGATGAATTTACTGATTCGAGTAAACAAATTTTCCTAATCTTTCTGTTCAAGCGCCATCTAC | 1.32 RPM ratio (pull-down/input)
GATGATTGTTCTCCCAGCTGATGAATTGGTACCCTCGAGTAAACAAATTTTCCTAATCTTTCTGTTCAAGCGCCATCTAC | 0.916 RPM ratio (pull-down/input)
GATGATTGTTCTCCCAGCTGATGAATTCCACGCCTCGAGTAAACAAATTTTCCTAATCTTTCTGTTCAAGCGCCATCTAC | 0.806 RPM ratio (pull-down/input)
GATGATTGTTCTCCCAGCTGATGAATTGGCCCCCTCGAGTAAACAAATTTTCCTAATCTTTCTGTTCAAGCGCCATCTAC | 0.75 RPM ratio (pull-down/input)
GATGATTGTTCTCCCAGCTGATGAATTCGAGGCTTCGAGTAAACAAATTTTCCTAATCTTTCTGTTCAAGCGCCATCTAC | 0.819 RPM ratio (pull-down/input)
GATGATTGTTCTCCCAGCTGATGAATTACAACAATCGAGTAAACAAATTTTCCTAATCTTTCTGTTCAAGCGCCATCTAC | 2.1 RPM ratio (pull-down/input)
GATGATTGTTCTCCCAGCTGATGAATTAGTACCTTCGAGTAAACAAATTTTCCTAATCTTTCTGTTCAAGCGCCATCTAC | 0.945 RPM ratio (pull-down/input)
GATGATTGTTCTCCCAGCTGATGAATTACTCTGCTCGAGTAAACAAATTTTCCTAATCTTTCTGTTCAAGCGCCATCTAC | 0.985 RPM ratio (pull-down/input)

Sequence | binding signal
GATGATTGTTCTCCCAGCTGATGAATTTCGTGCATCGAGTAAACAAATTTTCCTAATCTTTCTGTTCAAGCGCCATCTAC | 1.21 RPM ratio (pull-down/input)
GATGATTGTTCTCCCAGCTGATGAATTGGGCGTATCGAGTAAACAAATTTTCCTAATCTTTCTGTTCAAGCGCCATCTAC | 0.943 RPM ratio (pull-down/input)
GATGATTGTTCTCCCAGCTGATGAATTCATTCCATCGAGTAAACAAATTTTCCTAATCTTTCTGTTCAAGCGCCATCTAC | 0.916 RPM ratio (pull-down/input)
GATGATTGTTCTCCCAGCTGATGAATTAATGCTCTCGAGTAAACAAATTTTCCTAATCTTTCTGTTCAAGCGCCATCTAC | 1.11 RPM ratio (pull-down/input)
GATGATTGTTCTCCCAGCTGATGAATTAGCCGGTTCGAGTAAACAAATTTTCCTAATCTTTCTGTTCAAGCGCCATCTAC | 0.878 RPM ratio (pull-down/input)
GATGATTGTTCTCCCAGCTGATGAATTACAGTGTTCGAGTAAACAAATTTTCCTAATCTTTCTGTTCAAGCGCCATCTAC | 1.16 RPM ratio (pull-down/input)
GATGATTGTTCTCCCAGCTGATGAATTTGAATGATCGAGTAAACAAATTTTCCTAATCTTTCTGTTCAAGCGCCATCTAC | 0.9 RPM ratio (pull-down/input)
GATGATTGTTCTCCCAGCTGATGAATTGCGTTCCTCGAGTAAACAAATTTTCCTAATCTTTCTGTTCAAGCGCCATCTAC | 1.03 RPM ratio (pull-down/input)
GATGATTGTTCTCCCAGCTGATGAATTAACACCCTCGAGTAAACAAATTTTCCTAATCTTTCTGTTCAAGCGCCATCTAC | 0.976 RPM ratio (pull-down/input)
GATGATTGTTCTCCCAGCTGATGAATTCATTTGGTCGAGTAAACAAATTTTCCTAATCTTTCTGTTCAAGCGCCATCTAC | 0.932 RPM ratio (pull-down/input)
GATGATTGTTCTCCCAGCTGATGAATTCGGCTCGTCGAGTAAACAAATTTTCCTAATCTTTCTGTTCAAGCGCCATCTAC | 0.787 RPM ratio (pull-down/input)
GATGATTGTTCTCCCAGCTGATGAATTTACATGCTCGAGTAAACAAATTTTCCTAATCTTTCTGTTCAAGCGCCATCTAC | 1.41 RPM ratio (pull-down/input)
GATGATTGTTCTCCCAGCTGATGAATTGACTGTCTCGAGTAAACAAATTTTCCTAATCTTTCTGTTCAAGCGCCATCTAC | 0.876 RPM ratio (pull-down/input)
GATGATTGTTCTCCCAGCTGATGAATTGGCTACTTCGAGTAAACAAATTTTCCTAATCTTTCTGTTCAAGCGCCATCTAC | 0.866 RPM ratio (pull-down/input)
GATGATTGTTCTCCCAGCTGATGAATTTCCCGAGTCGAGTAAACAAATTTTCCTAATCTTTCTGTTCAAGCGCCATCTAC | 0.782 RPM ratio (pull-down/input)
GATGATTGTTCTCCCAGCTGATGAATTATGATCATCGAGTAAACAAATTTTCCTAATCTTTCTGTTCAAGCGCCATCTAC | 1.05 RPM ratio (pull-down/input)
GATGATTGTTCTCCCAGCTGATGAATTGTTTTATTCGAGTAAACAAATTTTCCTAATCTTTCTGTTCAAGCGCCATCTAC | 1.6 RPM ratio (pull-down/input)
GATGATTGTTCTCCCAGCTGATGAATTACGTAATTCGAGTAAACAAATTTTCCTAATCTTTCTGTTCAAGCGCCATCTAC | 1.14 RPM ratio (pull-down/input)
GATGATTGTTCTCCCAGCTGATGAATTCTAGACTTCGAGTAAACAAATTTTCCTAATCTTTCTGTTCAAGCGCCATCTAC | 0.771 RPM ratio (pull-down/input)
GATGATTGTTCTCCCAGCTGATGAATTGTTGGGGTCGAGTAAACAAATTTTCCTAATCTTTCTGTTCAAGCGCCATCTAC | 1.27 RPM ratio (pull-down/input)
GATGATTGTTCTCCCAGCTGATGAATTTTAGGGTTCGAGTAAACAAATTTTCCTAATCTTTCTGTTCAAGCGCCATCTAC | 0.861 RPM ratio (pull-down/input)

Sequence | binding signal
GATGATTGTTCTCCCAGCTGATGAATTTGAGTAATCGAGTAAACAAATTTTCCTAATCTTTCTGTTCAAGCGCCATCTAC | 1.34 RPM ratio (pull-down/input)
GATGATTGTTCTCCCAGCTGATGAATTGGACGGATCGAGTAAACAAATTTTCCTAATCTTTCTGTTCAAGCGCCATCTAC | 0.794 RPM ratio (pull-down/input)
GATGATTGTTCTCCCAGCTGATGAATTACATGTCTCGAGTAAACAAATTTTCCTAATCTTTCTGTTCAAGCGCCATCTAC | 1.11 RPM ratio (pull-down/input)
GATGATTGTTCTCCCAGCTGATGAATTCGGGAAATCGAGTAAACAAATTTTCCTAATCTTTCTGTTCAAGCGCCATCTAC | 0.935 RPM ratio (pull-down/input)
GATGATTGTTCTCCCAGCTGATGAATTAGATTCATCGAGTAAACAAATTTTCCTAATCTTTCTGTTCAAGCGCCATCTAC | 0.949 RPM ratio (pull-down/input)
GATGATTGTTCTCCCAGCTGATGAATTGATGGGTTCGAGTAAACAAATTTTCCTAATCTTTCTGTTCAAGCGCCATCTAC | 0.958 RPM ratio (pull-down/input)
GATGATTGTTCTCCCAGCTGATGAATTTTACGTATCGAGTAAACAAATTTTCCTAATCTTTCTGTTCAAGCGCCATCTAC | 0.962 RPM ratio (pull-down/input)
GATGATTGTTCTCCCAGCTGATGAATTTTTCATATCGAGTAAACAAATTTTCCTAATCTTTCTGTTCAAGCGCCATCTAC | 0.989 RPM ratio (pull-down/input)
GATGATTGTTCTCCCAGCTGATGAATTTGTTCAATCGAGTAAACAAATTTTCCTAATCTTTCTGTTCAAGCGCCATCTAC | 1.17 RPM ratio (pull-down/input)
GATGATTGTTCTCCCAGCTGATGAATTACCCCTATCGAGTAAACAAATTTTCCTAATCTTTCTGTTCAAGCGCCATCTAC | 0.969 RPM ratio (pull-down/input)
GATGATTGTTCTCCCAGCTGATGAATTGTAACCTTCGAGTAAACAAATTTTCCTAATCTTTCTGTTCAAGCGCCATCTAC | 1.01 RPM ratio (pull-down/input)
GATGATTGTTCTCCCAGCTGATGAATTATTGTCGTCGAGTAAACAAATTTTCCTAATCTTTCTGTTCAAGCGCCATCTAC | 1.56 RPM ratio (pull-down/input)
GATGATTGTTCTCCCAGCTGATGAATTTGCGGGCTCGAGTAAACAAATTTTCCTAATCTTTCTGTTCAAGCGCCATCTAC | 0.839 RPM ratio (pull-down/input)
GATGATTGTTCTCCCAGCTGATGAATTGGCATGTTCGAGTAAACAAATTTTCCTAATCTTTCTGTTCAAGCGCCATCTAC | 0.944 RPM ratio (pull-down/input)
GATGATTGTTCTCCCAGCTGATGAATTGACACTCTCGAGTAAACAAATTTTCCTAATCTTTCTGTTCAAGCGCCATCTAC | 1.16 RPM ratio (pull-down/input)
GATGATTGTTCTCCCAGCTGATGAATTAGATTCGTCGAGTAAACAAATTTTCCTAATCTTTCTGTTCAAGCGCCATCTAC | 0.892 RPM ratio (pull-down/input)
GATGATTGTTCTCCCAGCTGATGAATTAATATAATCGAGTAAACAAATTTTCCTAATCTTTCTGTTCAAGCGCCATCTAC | 1.26 RPM ratio (pull-down/input)
GATGATTGTTCTCCCAGCTGATGAATTGATTTCGTCGAGTAAACAAATTTTCCTAATCTTTCTGTTCAAGCGCCATCTAC | 1.11 RPM ratio (pull-down/input)
GATGATTGTTCTCCCAGCTGATGAATTCCCCTGCTCGAGTAAACAAATTTTCCTAATCTTTCTGTTCAAGCGCCATCTAC | 0.784 RPM ratio (pull-down/input)
GATGATTGTTCTCCCAGCTGATGAATTATCACCTTCGAGTAAACAAATTTTCCTAATCTTTCTGTTCAAGCGCCATCTAC | 1.03 RPM ratio (pull-down/input)
GATGATTGTTCTCCCAGCTGATGAATTCTTTACATCGAGTAAACAAATTTTCCTAATCTTTCTGTTCAAGCGCCATCTAC | 1.07 RPM ratio (pull-down/input)
